In all, about 310,000 compounds went through this assay and about 14,000 (4.5%) showed an effect of 50% or more. The effect is printed as a negative number. Some of the results follow.
These molecules were tested against human ether-à-go-go-related gene (hERG) potassium channel (human, UniProt Q12809) (assay: primary screen, population patch clamp on CHO cells stably expressing hERG).
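Also: peak tail current of the secondary pulse compared with the same well before compound.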

Chain of human ether-à-go-go-related gene (hERG) potassium channel (Q12809 whole entry, looked up): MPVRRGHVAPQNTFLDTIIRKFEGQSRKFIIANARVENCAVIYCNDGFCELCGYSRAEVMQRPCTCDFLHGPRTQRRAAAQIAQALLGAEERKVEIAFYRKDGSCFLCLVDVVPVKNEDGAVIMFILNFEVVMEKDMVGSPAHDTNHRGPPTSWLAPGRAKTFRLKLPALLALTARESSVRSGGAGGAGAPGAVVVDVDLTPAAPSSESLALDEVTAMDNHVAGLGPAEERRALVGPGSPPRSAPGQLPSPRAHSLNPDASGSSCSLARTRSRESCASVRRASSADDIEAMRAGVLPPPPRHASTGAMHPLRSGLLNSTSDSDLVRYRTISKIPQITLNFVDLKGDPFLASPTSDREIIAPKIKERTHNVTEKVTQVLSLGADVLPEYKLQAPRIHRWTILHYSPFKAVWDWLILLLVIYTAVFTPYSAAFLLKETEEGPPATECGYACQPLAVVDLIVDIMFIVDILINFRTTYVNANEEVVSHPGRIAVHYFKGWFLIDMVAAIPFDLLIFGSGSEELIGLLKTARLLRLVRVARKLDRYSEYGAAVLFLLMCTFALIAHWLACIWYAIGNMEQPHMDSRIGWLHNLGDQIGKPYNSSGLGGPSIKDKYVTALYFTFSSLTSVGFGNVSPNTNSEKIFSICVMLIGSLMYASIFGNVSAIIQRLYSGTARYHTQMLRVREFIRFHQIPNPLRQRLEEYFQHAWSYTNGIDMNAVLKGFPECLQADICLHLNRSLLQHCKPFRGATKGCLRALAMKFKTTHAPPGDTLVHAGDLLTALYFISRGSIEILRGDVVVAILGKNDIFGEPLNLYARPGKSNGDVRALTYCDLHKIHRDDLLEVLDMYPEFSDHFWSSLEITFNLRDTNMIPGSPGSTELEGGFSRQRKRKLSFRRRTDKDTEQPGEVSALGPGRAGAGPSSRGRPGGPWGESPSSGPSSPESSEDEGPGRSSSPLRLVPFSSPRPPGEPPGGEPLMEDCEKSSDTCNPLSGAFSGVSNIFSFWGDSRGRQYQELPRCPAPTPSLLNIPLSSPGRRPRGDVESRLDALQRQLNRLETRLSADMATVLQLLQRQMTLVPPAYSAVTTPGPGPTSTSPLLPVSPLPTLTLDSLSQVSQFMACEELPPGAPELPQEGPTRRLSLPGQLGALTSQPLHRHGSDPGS

Row | SMILES | hERG current change (%, negative = inhibition) at 10uM [%]
1 | O=C(CSc1nnc(COc2ccccc2)o1)NCCc1ccccc1 | -1.41
2 | O=C(O)C(=O)/C(=C\c1cccc(Cl)c1)c1ccc2ccccc2n1 | 13.8
3 | CN(/N=C/c1ccccc1O)C(=S)c1ccccc1 | -3.8
4 | O=C(Nc1cccc2ncccc12)c1ccc(-c2ccc(Cl)cc2Cl)o1 | -7.06
5 | CC(C)(C)n1nnnc1C(c1ccncc1)N1CCCCCC1 (stereo not shown) | -8.52
6 | CCCn1c(N)c(C(=O)CSc2nnc(C3CC3)n2Cc2ccccc2)c(=O)n(C)c1=O | -11.3
7 | COc1ccc(C(=O)O)cc1S(=O)(=O)Nc1ccccc1-c1ccccc1 | 5.67
8 | NC(=O)c1nsc(C(=O)N(c2cccc(F)c2)C(C(=O)NCC2CCCO2)c2cccs2)c1N (stereo not shown) | 6.66
9 | CCOC(=O)Nc1ccc(S(=O)(=O)N(C)C(C)C)cc1 | -10.6
10 | Cc1ccc(S(=O)(=O)N2CCC(C(=O)NCCN3CCCCCC3)CC2)cc1 | -18.3
11 | CC(=O)Oc1cccc(N2C(=O)C3C4C=CC(C4=C(C)C)C3C2=O)c1 (stereo not shown) | 15.1
12 | Cc1nc2ccccc2c2nc(NC(=O)C(F)(F)F)nn12 | -13.5
13 | O=C(C1CC(=O)N(c2ccc3c(c2)OCCO3)C1)N1CCN(c2ccccc2O)CC1 (stereo not shown) | -6.34
14 | COc1ccc(OC)c(NC(=O)C(Sc2ccccc2)c2ccccc2)c1 (stereo not shown) | -12.5
15 | COc1ccccc1C/C(N)=N/OC(=O)COc1cccc(C)c1C | 4.05
16 | Cc1ccc(C(=O)CCc2ccc(N)cc2)cc1 | -6.3
17 | CC(NC(=O)NC(=O)c1ccc(Cl)cc1Cl)C1CC1 (stereo not shown) | 0.177
18 | COc1ccc([N+](=O)[O-])cc1NC(=O)Cc1c(Cl)cccc1Cl | 25.1
19 | Cc1ccc2[nH]nc(C(=O)N3CCCC(C(=O)c4ccc(Cl)cc4)C3)c2c1 (stereo not shown) | 22.4
20 | Nc1nc(C23CC4CCC(CC(C4)C2)C3)cs1 | 1.51
21 | CCOc1ccc(N(CC(=O)NC2CCCCC2)S(=O)(=O)c2ccccc2)cc1 | 15.1
22 | Cc1ccc(C(=O)CSc2nnnn2C(C)C)c(C)c1 | -3.38

Row | SMILES | hERG current change (%, negative = inhibition) at 10uM [%]
23 | COC(=O)c1sc(C(=O)OC)c(C(=O)OC)c1C(=O)OC | -1.17
24 | CC12CCC(C(=O)NCc3cccnc3)(OC1=O)C2(C)C (stereo not shown) | 6.67
25 | O=S(=O)(c1ccccc1)c1ccccc1/C=N\O | -7.44
26 | CC1SC(c2ccc(Cl)cc2Cl)NC1=O (stereo not shown) | 11.4
27 | Cc1cc(C)c(NC(=O)C2CCCN2CCOC(=O)c2cccc([N+](=O)[O-])c2)c(C)c1.Cl (stereo not shown) | -63.2
28 | Cc1ccccc1OCCn1c(S(=O)(=O)O)nc2c(N)ncnc21 | 24.7
29 | COc1ccc(CCNc2oc(-c3ccco3)nc2C#N)cc1 | -2.82
30 | N#C/C(=C\c1coc2ccc(O)cc2c1=O)C(=O)Nc1nc2ccccc2s1 | -6.05
31 | COc1ccc(N(CC(=O)N2CCc3ccccc3C2)S(=O)(=O)c2c(C)[nH]c(=O)[nH]c2=O)cc1 | 16.7
32 | CC(NC(=S)Nc1ccc(Cl)cc1)C(c1ccccc1)N1CCOCC1 (stereo not shown) | -13
33 | COc1ccc(NC(=O)C2CCN(S(=O)(=O)c3ccc4c(c3)NC(=O)C(C)S4)CC2)cc1 (stereo not shown) | 14.8
34 | CCC(O)C1CCN(C(=O)c2cc(COc3ccc4ncccc4c3)on2)CC1 (stereo not shown) | 3.26
35 | CSc1nc2c(c(=O)[nH]1)C(c1ccccc1)C1=C(CC(C)(C)CC1=O)N2 (stereo not shown) | 15.5
36 | CN1CCC(C2(O)c3ccccc3CSc3sccc32)CC1 (stereo not shown) | -1.44
37 | CN1C(=O)CSc2ccc(NC(=O)N3CCC(N4CCCCC4)CC3)cc21 | -12.8
38 | COc1ccc(C(=O)O/N=C(/c2cccs2)C(C)(C)C)cc1 | 6.91
39 | O=C(O)/C=C/C(=O)Nc1ccccc1SC(F)(F)C(F)(F)C(F)(F)F | -0.932
40 | CCC(C)Sc1nc2c(c(=O)[nH]c(=O)n2C)n1Cc1ccc(Cl)cc1 (stereo not shown) | 1.92
41 | O=C(O)CSc1nnc(SCc2cccc3ccccc23)s1 | -4.57
42 | CCc1sc(C(=O)Nc2cccc(C(C)=O)c2)cc1C | -22.4
43 | CCOC(=O)c1[nH]c2ccc(OCC)cc2c1CCCN1C(=O)c2ccccc2C1=O | 21
44 | COC(=O)CN1C(=O)[C@@H]2[C@H](C1=O)[C@@H]1CC(C(=O)OC)=C[C@@H](C(=O)OC)[C@@H]3C1=C(C(=O)[C@@]3(C)NC(=O)c1ccccc1)[C@@H]2C | -2.29

Row | SMILES | hERG current change (%, negative = inhibition) at 10uM [%]
45 | CC(C)[C@@H]1NC(=O)N(c2ccc(Oc3ccccc3)cc2)C1=O | 9.98
46 | COc1ccc(NC(=O)CCC(=O)N(Cc2ccc(OC)c(OC)c2)c2nccs2)c(OC)c1 | 2.88
47 | CCO.Cn1c2c(c(=O)n(C)c1=O)[C@@]1(C(=O)Nc3ccccc31)C(C#N)=C(N)O2 | 19.7
48 | Cn1ccnc1Sc1ccc(C=O)cc1[N+](=O)[O-] | -3.05
49 | CCCCn1c(SCC(=O)Nc2ccc(NC(C)=O)cc2)nc2ccccc2c1=O | -2.55
50 | O=C(NCc1ccccc1)c1cccc(COc2ccc(Cl)cc2)c1 | 5.77
51 | O=C(O)CC(NCc1ccco1)C(=O)OCCCl (stereo not shown) | 16.2
52 | CCOC(=O)c1ccccc1NC(=O)C1COc2ccccc2O1 (stereo not shown) | 11.9
53 | C[C@@]12C(=O)N(Cc3ccccc3)CC(=O)N1[C@H](/C=C/c1ccccc1)[C@@H]1C(=O)N(c3ccccc3)C(=O)[C@@H]12 | -23
54 | CCCn1nnnc1SCC(=O)N1CCCC1 | 6.66
55 | CCCCn1c(Cc2ccccc2)nnc1SCC(=O)N1CCOCC1 | 0.754
56 | O=[N+]([O-])c1ccc(Oc2cccc(Br)c2)c2ccncc12 | 12.8
57 | CN1CCc2c(sc3nc(SCC(N)=O)n(-c4ccccc4)c(=O)c23)C1 | 6.28
58 | C/C(=N/NC(=O)c1sc(NS(=O)(=O)c2ccccc2)nc1C)c1sc(N)nc1C | 10.6
59 | CC1CCN(S(=O)(=O)c2ccc3[nH]c(=O)c(=O)[nH]c3c2)CC1 | -3.68
60 | NS(=O)(=O)c1ccc(-c2ccc(/C=N/Nc3ccc(C(=O)O)cc3)o2)cc1 | 11.7
61 | COc1ccc(-c2cc(C(=O)Nc3cc(S(N)(=O)=O)ccc3C)c3ccccc3n2)cc1OC | 6.84
62 | Cc1ccc(OCC(=O)c2cc(C)n(-c3ccccc3)c2C)c([N+](=O)[O-])n1 | -12.8
63 | O=C(Nc1ccc(S(=O)(=O)N2CCOCC2)cc1)c1cc([N+](=O)[O-])ccc1Cl | 10.8
64 | NS(=O)(=O)c1ccc(N=Cc2c(O)n(C3CCCCC3)c(=O)n(C3CCCCC3)c2=O)cc1 | 2.1
65 | Cc1ccc(C(NC(=O)CN2C(=O)NC3(CCCC3)C2=O)c2ccccc2)cc1 (stereo not shown) | 8.34
66 | COc1ccc(CNC(=S)Nc2ccccc2)cc1Cl | -0.0446

Row | SMILES | hERG current change (%, negative = inhibition) at 10uM [%]
67 | CCCc1cc(=O)oc2c(C)c(OC(C)C(=O)NCc3ccccn3)ccc12 (stereo not shown) | -43.5
68 | O=C(COc1ccc(F)c(Cl)c1)N1CCN(c2ccccn2)CC1 | -55.3
69 | COCCn1c(N)c(NCc2ccccc2)c(=O)n(CC(=O)Nc2cc(C)ccc2C)c1=O | -1.7
70 | Cc1ccc(C)c(NC(=O)CN2C(=O)COc3ccc(S(=O)(=O)N4CCCC4)cc32)c1 | -0.517
71 | Cc1ncc(CN2CCCC(C(=O)Nc3ccc(-c4cccc(F)c4)cc3)C2)s1 (stereo not shown) | 1.64
72 | NC(=S)N/N=C/c1ccc(OC(=O)c2cccnc2)cc1 | 13.3
73 | N#CC(C#N)=C1NC2(CCCCC2)Cc2ccccc21 | -1.99
74 | COc1ccc(S(=O)(=O)n2cnc3ccccc32)cc1.Cl | 13.4
75 | CCC1(OC(=O)CN)C(=O)OCc2c1cc1n(c2=O)Cc2cc3ccccc3nc2-1.Cl (stereo not shown) | 8.16
76 | CCOC(=O)CN1CCC(c2cc(-c3ccc(Cl)cc3)n[nH]2)CC1 | -12.5
77 | CCN(CC)Cc1c(NC(=O)c2ccccc2)sc(C)c1C | -38.8
78 | O=[N+]([O-])c1cccc(S(=O)(=O)Nc2ccc(S(=O)(=O)NCC3CCCO3)cc2)c1 (stereo not shown) | -0.96
79 | O=[N+]([O-])c1ccc(-c2cn(-c3ccc(Cl)cc3)c(=S)[nH]2)cc1 | -0.247
80 | COc1ccc(C(=O)NC2CCN(C(=S)Nc3cc(C)ccc3C)CC2)cc1 | 2.78
81 | CC(C)Nc1nc(NC(N)=S)nc(NC(C)C)n1 | 7.4
82 | COc1cc(/C(C#N)=C/c2cccc3ccccc23)c([N+](=O)[O-])cc1OC | 17.4
83 | c1ccc(-c2nn3c(Cn4nnc5ccccc54)nnc3s2)nc1 | -14.4
84 | Cc1nn(C(C)(C)C)c(OC(=O)CC(C)C)c1S(=O)(=O)c1ccccc1 | 5.75
85 | O=P(Cc1cc[n+]([O-])cc1)(c1ccccc1)c1ccccc1 | 12.6

— publication PMC4336329 (PLoS ONE, 2015)
